Measured values taken from the supplement of paper PMC3334620.
In all, about 33,000 sequences were measured (“E-score (-0.5 to 0.5)”: median about -0.035, highest 2% from about 0.34 on). The list shows a part of the results.

target: T1, Mot3 (UniProt P54785); experiment: PBM E-score (8-mer binding enrichment) (E-score (-0.5 to 0.5)); higher = stronger / more preferred TF binding; most listed sequences are background and not binding sites; settings: protein concentration: 200 nM; construct: GST-full length
T1 sequence: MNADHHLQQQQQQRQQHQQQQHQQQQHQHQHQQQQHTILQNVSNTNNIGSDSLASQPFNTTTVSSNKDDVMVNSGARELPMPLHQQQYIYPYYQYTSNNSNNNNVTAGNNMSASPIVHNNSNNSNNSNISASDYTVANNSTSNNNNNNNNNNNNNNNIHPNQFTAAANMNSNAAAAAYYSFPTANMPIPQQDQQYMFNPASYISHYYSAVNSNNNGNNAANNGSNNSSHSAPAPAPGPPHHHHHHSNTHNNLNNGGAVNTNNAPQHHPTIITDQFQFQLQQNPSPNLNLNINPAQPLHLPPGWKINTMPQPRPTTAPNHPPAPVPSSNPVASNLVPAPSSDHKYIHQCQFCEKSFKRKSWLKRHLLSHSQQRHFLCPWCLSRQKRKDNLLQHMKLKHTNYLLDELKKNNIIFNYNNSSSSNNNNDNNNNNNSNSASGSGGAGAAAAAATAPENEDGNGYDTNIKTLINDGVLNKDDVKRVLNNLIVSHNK
Summary of the method: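 The E-score, a modified Wilcoxon-Mann-Whitney statistic, was computed by the Universal PBM Analysis Suite for every ungapped eight-base word pooled with its reverse complement. Scans behind it were normalised with masliner after bound GST-tagged yeast transcription factors were detected with fluorescent anti-GST. The proteins, at about 100-200 nM, had been applied to universal all-10-mer Agilent arrays made double-stranded by primer extension.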

Row | Sequence | PBM E-score
1 | GACCGCTC | -0.276
2 | ACGGTGTC | -0.149
3 | AAACCCGT | -0.069
4 | CCGGCTTA | -0.165
5 | ACGCTTCA | 0.156
6 | ATCTTCAC | -0.0574
7 | GATTCAGA | -0.0558
8 | CCCTACAG | -0.128
9 | GGGGAATA | -0.0792
10 | TAAAACAA | 0.248
11 | GATTAATA | 0.0349
12 | ACCAGACC | -0.0731
13 | CCAACGAC | -0.13
14 | ATAACGAC | -0.0163
15 | GAGAATTA | 0.0891
16 | GTATGTTA | 0.354
17 | AAGATATT | -0.128
18 | CGACTCGC | -0.225
19 | GATTAGTA | 0.133
20 | AGAATCCA | -0.128
21 | ACCTCCGG | -0.156
22 | CAAACGTA | 0.0816
23 | ACTGACCT | -0.155
24 | GGAAAACA | 0.292
25 | GATTGGGC | -0.0885

Row | Sequence | PBM E-score
26 | CTCTATCA | -0.114
27 | GTACCGTA | -0.0156
28 | CGCTATAC | 0.081
29 | GCGTCAGC | -0.147
30 | GCTTGCCC | -0.185
31 | CAGTACGG | -0.0449
32 | ATGTTTTG | 0.237
33 | AGGCTACC | 0.233
34 | GTCTCAGA | -0.0701
35 | CGATAAAC | -0.021
36 | AGCCGAGA | -0.265
37 | GGCACCCC | 0.149
38 | AACATCTG | -0.101
39 | CTGCGAAG | -0.0675
40 | AACAGAGC | -0.00619
41 | CTGTGACA | 0.0656
42 | CCGCTGCA | -0.0673
43 | ATCAGGAA | 0.343
44 | ATAGACGC | 0.0691
45 | AGAATCCG | -0.086
46 | AATCTTCT | 0.112
47 | TCGGGAGA | -0.2
48 | CAAGGAGG | 0.0881
49 | ATGCCCCA | -0.292
50 | CGACTAGC | -0.233

Row | Sequence | PBM E-score
51 | CTGTCTTA | -0.0105
52 | AGACACGG | 0.225
53 | ACATTTTG | 0.147
54 | ACGGTGTG | -0.176
55 | GTACGCTA | 0.0409
56 | ACAGAAGA | 0.0562
57 | CCGAATAA | 0.1
58 | CCACAAAG | 0.00356
59 | ACCCACAT | -0.103
60 | AAGATCAT | -0.0109
61 | CTAAGTTA | 0.0816
62 | CCTCTGAC | -0.145
63 | CGAGCCAC | -0.248
64 | CAACAACC | 0.0394
65 | CGCGCAAG | -0.118
66 | TCCTCAGA | -0.11
67 | ACAACTAT | 0.143
68 | CATCTTAC | 0.00682
69 | TCTATAAA | -0.00901
70 | CCCATGCA | 0.0505
71 | ACACTAGA | 0.0241
72 | ATAGTCGA | -0.0312
73 | CGGATATC | -0.00865
74 | AGCATAGG | 0.0421
75 | AGGGGATG | -0.18

Row | Sequence | PBM E-score
76 | AGATGCCG | -0.212
77 | AAGTAGGC | 0.176
78 | ACGATGGA | 0.097
79 | ACCGCGAG | -0.123
80 | TTAGTAAA | 0.203
81 | GACTAGCC | -0.329
82 | CGGAACCA | -0.115
83 | CGGCCCAA | -0.303
84 | ATTGATGA | -0.0832
85 | AATAAGCT | 0.0276
86 | ACCACCAT | -0.0985
87 | GCCCTTTA | -0.0408
88 | GCTTGTTA | 0.179
89 | CGTCTTGC | 0.0394
90 | GATTTAAA | -0.0352
91 | GCCATTAC | 0.063
92 | CAGGCCCC | 0.176
93 | CATTCCGG | -0.148
94 | CCAATATA | 0.0238
95 | ACCTATCG | 0.0731
96 | ATGGCTTA | -0.105
97 | TTCACGAA | -0.117
98 | ACAAGGGG | 0.0989
99 | TACTTTAA | 0.0488
100 | AGGGCTTC | -0.0325

Row | Sequence | PBM E-score
101 | ATCAAGAT | -0.0533
102 | GGCCGATA | -0.236
103 | CAGCAATA | 0.0493
104 | CCCCAGTC | -0.311
105 | AAGCTAGG | -0.0844
106 | GCTATAGC | -0.235
107 | CCGGGCGC | -0.421
108 | CATGAAAG | -0.0275
109 | CATACGGA | -0.163
110 | AGCGAGGA | -0.254
111 | ATGTGTTC | 0.152
112 | GCTGCAAC | -0.242
113 | GCGCAAAC | -0.123
114 | AGGGCAAA | -0.0247
115 | GTTAGGAA | 0.188
116 | TCCGGAAA | -0.0958
117 | CGCACCCG | -0.155
118 | TCGACGAA | -0.0651
119 | GCCAGCAC | -0.245
120 | TAGACGCA | -0.0723
121 | ACTTAAAC | 0.139
122 | CAACTACC | -0.02
123 | CGAGCGCA | -0.027
124 | ATGCCCGC | -0.288
125 | CACATGAG | 0.0156

Row | Sequence | PBM E-score
126 | AAATATAA | 0.199
127 | CCACGAGG | -0.226
128 | CTGTCCAC | 0.0862
129 | ACTACAGC | 0.0561
130 | AGGACGGA | -0.374
131 | GCATAATA | 0.162
132 | AAGCAGGG | -0.24
133 | AAACCGAG | -0.269
134 | ATGACACG | 0.384
135 | AGCGTCGC | -0.0658
136 | CCGGGCGA | -0.0692
137 | CACTAAAC | 0.154
138 | AAACGGCG | -0.159
139 | AGTGTAAT | 0.308
140 | ACAATTTG | 0.0354
141 | AAACTGTA | 0.0863
142 | GGTGGGGA | -0.00724
143 | GGCTCAAC | 0.113
144 | AGCGGGTA | 0.0718
145 | TGTGCAAA | 0.179
146 | CATATCTA | 0.0779
147 | CCGAAATC | -0.193
148 | CCCTTACG | 0.0156
149 | CGTCTTAC | 4e-05
150 | AGTACAAT | 0.136

Row | Sequence | PBM E-score
151 | AGACTTGA | 0.0807
152 | GCATGCGC | 0.0867
153 | CGTCTCCC | -0.142
154 | AACACGCA | 0.326
155 | TGTTGGAA | 0.271
156 | CATGCCCC | -0.0877
157 | ATCGCAGG | 0.141
158 | AGCAGATC | 0.0097
159 | ATATTTGC | 0.222
160 | GAGCGTGC | -0.0522
161 | GGGCAGAA | -0.0232
162 | AGACGCAA | 0.0655
163 | GCAGAGGC | -0.26
164 | AAATAACG | 0.19
165 | ATCGCCTG | -0.148
166 | CGGGCGAG | -0.138
167 | CTCGTAGC | -0.168
168 | ATCTGTTC | 0.0556
169 | GGATTCTA | 0.0172
170 | CACTTTAG | -0.0286
171 | ATTGAGAC | -0.134
172 | GGATGTAA | 0.295
173 | CGTCCACA | -0.116
174 | CTCTCATC | -0.198
175 | CCCGGATA | -0.224

Row | Sequence | PBM E-score
176 | CCGCCGCA | -0.0458
177 | CGGATCAA | 0.0823
178 | TAGTCTGA | -0.122
179 | AGCGGAGC | -0.232
180 | GGGCGTTA | 0.212
181 | GTCCGACA | 0.0717
182 | CGGACACC | -0.186
183 | GTCCCATA | -0.173
184 | CAGGAGGG | -0.159
185 | GGCAAATA | 0.314
186 | CATCGGGA | -0.224
187 | ATGATTTA | 0.124
188 | ACACCGAC | 0.0305
189 | ATCGACGG | -0.121
190 | GACCCTCC | -0.239
191 | TCAACGCA | 0.235
192 | GGAACACC | 0.0643
193 | AGAACTAA | 0.0172
194 | GCAACCAA | -0.013
195 | CTTCCCAC | -0.0498
196 | CCATTCGA | -0.016
197 | CGTAGAGC | 0.112
198 | GACGGTGA | -0.24
199 | ACGGGTTC | -0.0953
200 | ACCCTAAT | 0.00619

Row | Sequence | PBM E-score
201 | AAGATGTA | 0.194
202 | CATAATTA | 0.229
203 | CTCCGAGC | -0.0251
204 | TAAGACAA | 0.106
205 | GGCTCTAC | -0.144
206 | CAGCGAAC | -0.179
207 | GGAGGCAA | 0.437
208 | AGGTCGAG | -0.141
209 | GTGTCCCA | -0.183
210 | ATCAGGGG | -0.35
211 | AGAAGGGC | -0.0481
212 | GGCACATA | 0.281
213 | GCGCAATA | -0.134
214 | GGGCTGAA | 0.0021
215 | ATCGATTC | -0.187
216 | CGTTGCCA | -0.0814
217 | CGTGGACC | -0.307
218 | AGTTTTTC | 0.186
219 | AACGCAGA | -0.00078
